# Measurements: PMC4336329 (PLoS ONE, 2015)
# Hit rate of the full screen: of about 310,000 compounds, about 14,000 (4.5%) showed an effect of 50% or more. The effect is printed as a negative number. The list shows a part of the results.
# Molecular target: human ether-à-go-go-related gene (hERG) potassium channel (human, UniProt Q12809)
# Test: primary screen, population patch clamp on CHO cells stably expressing hERG
# 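Note: peak tail current of the secondary pulse compared with the same well before compound.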
# Chain of human ether-à-go-go-related gene (hERG) potassium channel (Q12809 whole entry, looked up): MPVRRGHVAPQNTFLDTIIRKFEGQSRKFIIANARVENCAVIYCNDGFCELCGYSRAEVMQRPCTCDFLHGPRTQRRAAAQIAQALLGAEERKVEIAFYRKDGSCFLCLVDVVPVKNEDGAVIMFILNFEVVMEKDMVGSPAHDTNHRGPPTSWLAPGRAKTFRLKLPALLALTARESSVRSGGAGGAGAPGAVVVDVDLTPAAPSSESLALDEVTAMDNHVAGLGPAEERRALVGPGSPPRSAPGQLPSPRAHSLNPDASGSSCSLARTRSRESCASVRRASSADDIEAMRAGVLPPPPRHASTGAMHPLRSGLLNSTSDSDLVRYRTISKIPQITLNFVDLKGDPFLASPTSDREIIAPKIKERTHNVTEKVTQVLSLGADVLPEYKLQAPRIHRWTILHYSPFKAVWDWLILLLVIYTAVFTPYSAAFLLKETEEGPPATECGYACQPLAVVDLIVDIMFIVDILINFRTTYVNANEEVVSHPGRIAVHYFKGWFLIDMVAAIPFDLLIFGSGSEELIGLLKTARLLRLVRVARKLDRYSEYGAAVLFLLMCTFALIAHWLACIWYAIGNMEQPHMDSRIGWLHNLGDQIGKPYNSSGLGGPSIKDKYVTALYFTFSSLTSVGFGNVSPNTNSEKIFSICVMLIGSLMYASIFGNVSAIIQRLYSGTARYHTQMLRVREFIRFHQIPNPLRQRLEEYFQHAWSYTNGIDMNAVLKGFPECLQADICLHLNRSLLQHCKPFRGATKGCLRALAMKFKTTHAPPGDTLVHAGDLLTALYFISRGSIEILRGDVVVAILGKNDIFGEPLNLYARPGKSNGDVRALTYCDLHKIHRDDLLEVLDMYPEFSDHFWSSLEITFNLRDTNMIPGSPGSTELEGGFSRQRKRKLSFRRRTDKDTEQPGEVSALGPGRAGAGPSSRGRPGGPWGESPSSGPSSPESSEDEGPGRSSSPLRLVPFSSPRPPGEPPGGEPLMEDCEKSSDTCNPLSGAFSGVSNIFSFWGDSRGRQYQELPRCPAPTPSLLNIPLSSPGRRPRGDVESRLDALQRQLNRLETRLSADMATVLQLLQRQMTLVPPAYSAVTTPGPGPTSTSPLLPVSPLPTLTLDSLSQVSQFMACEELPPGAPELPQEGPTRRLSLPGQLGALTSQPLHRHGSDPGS
row,Structure (SMILES),"hERG current change (%, negative = inhibition) at 10uM"
1,O=C1CC(N2CCN(c3ccccc3Cl)CC2)C(=O)N1c1cccc(F)c1 (centres unmarked),9.79%
2,Cc1ccc(COC(=O)CN2C(=O)NC3(CCCC3)C2=O)cc1,2.81%
3,O=C(c1ccccc1F)N1CCN(S(=O)(=O)c2ccc3c(c2)OCCO3)CC1,-25.3%
4,Cc1nn(CC(=O)O)c(C)c1C,4.97%
5,COCC(C)NC(=O)c1cccc(Cl)c1 (centres unmarked),16.4%
6,Cc1cc(C)n(NC(=S)NC2CCCCC2)c(=O)c1C#N,4.28%
7,COc1cc(NC(=O)c2ccccc2)c(OC)cc1Cl,-8.77%
8,CC(NC(=O)CN1C(=O)NC2(CCCCCC2)C1=O)c1ccccc1 (centres unmarked),2.93%
9,O=C(Nc1ccccc1C(=O)Nc1ccc(Cl)cc1)c1cccnc1,6.53%
10,CCOc1ccc(N(CC(=O)Nc2ccc(Br)cc2)S(C)(=O)=O)cc1,1.75%
11,Nn1c(SCC(=O)NC2CCCCC2)nnc1-c1ccccc1F,-3.17%
12,Cc1cc(C)n(-c2nc(C)nc(NCc3ccccc3)n2)n1,-86.9%
13,O=C(CCc1nnc2ccc(N3CCC4(CC3)OCCO4)nn12)N1CCCCC1,16.7%
14,O=C(CSc1ccc(-c2cccnc2)nn1)N1CCCC1,9.32%
15,S=C(NCCN1CCOCC1)N/N=C/c1ccccc1,1.23%
16,Cc1cc(=O)oc2cc(OCC3CC(c4ccccc4)=NO3)ccc12 (centres unmarked),-9.51%
17,COCCNS(=O)(=O)c1ccc(C)c(C)c1C,5.71%
18,CCOC(=O)N1CCC(Nc2ccc(N3C(=O)C4CCCCC4C3=O)cc2[N+](=O)[O-])CC1 (centres unmarked),-16.1%
19,O=[N+]([O-])c1ccc2[nH]nc(-c3ccccc3)c2c1,9.26%
20,Cc1nc2c(S(=O)(=O)c3ccccc3)cnn2c(C)c1C,13.4%
21,CCC(C(=O)OCC(=O)Nc1cc(C)ccc1OC)c1ccccc1 (centres unmarked),5.62%
22,CC(=O)c1ccc2c(c1)OCCOCCOc1ccc(C(C)=O)cc1OCCOCCO2,-76.6%
23,CC(=O)c1c(C(C)=O)c(C)n(Cc2ccccc2)c1C,-5.73%

row,Structure (SMILES),"hERG current change (%, negative = inhibition) at 10uM"
1,Cc1ccc(C(=O)NNC(=O)CSc2nc(N)cc(N)n2)cc1,12.9%
2,COc1ccc(NC(=O)c2ccc3c(=O)n(-c4ccc(OC)cc4OC)c(=S)[nH]c3c2)cc1,18.7%
3,CCOc1ccc(C(=O)Cc2ccc3oc(C(=O)O)cc3c2)c(O)c1,-2.66%
4,O=C(c1ccco1)N1CCN(C2c3ccccc3-c3ccccc32)CC1,2.49%
5,CC(=O)c1ccc(N2CCN(S(=O)(=O)c3c(C(=O)N4CCCC4)c(C)n(C)c3C)CC2)cc1,15.6%
6,COCCCNC(=O)CCc1nnc2ccc(N3CCC(C)CC3)nn12,10.9%
7,CC(C)c1ccc(NC(=O)c2cc(S(=O)(=O)N3CCCC3)c[nH]2)cc1,-3.45%
8,Cc1ccccc1NC(=O)CNC(=O)c1ccc(C(F)(F)F)cc1,-9.16%
9,O=C(O)c1cccc(-n2cnnn2)c1,8.14%
10,Clc1cnc(N/N=C/c2ccco2)c(Cl)c1,-15.3%
11,CCN(CC)Cc1cc(C(=O)O)c(C)o1,19.4%
12,N#Cc1cccc(C#N)c1Oc1ccc(S(=O)(=O)Nc2ccc(Cl)cc2)cc1,10.4%
13,CCN1C(=O)/C(=C\c2ccc(-c3cccc(C(=O)OC)c3)o2)SC1=Nc1ccc(C(=O)O)cc1,15.6%
14,Cc1nnc(SCC(=O)NC(=O)NCc2ccco2)s1,15.9%
15,CC(C)n1nc(C(=O)NCCc2ccc(S(N)(=O)=O)cc2)c2ccccc2c1=O,4.68%
16,CC(=O)NC(CC(=O)NNC(=O)c1cccs1)c1ccccc1 (centres unmarked),14.7%
17,COc1ccc(C)cc1NC(=O)C1CCCN1S(=O)(=O)c1ccc2c(c1)CCC(=O)N2 (centres unmarked),-50.8%
18,O=C(Nc1cccc(C(=O)O)c1)/C(=C\c1ccccc1)NC(=O)c1ccccc1Cl,2.7%
19,COc1ccc(Cc2nc3ccc(C(=O)N4CCCCC4CCO)cc3o2)cc1 (centres unmarked),4.93%
20,Cc1cc(C(=O)Cn2nc(C(=O)O)c3ccccc3c2=O)c(C)n1CCc1ccc(F)cc1,1.17%
21,Cc1cc(C)n(-c2c(F)c(F)c(CO)c(F)c2F)n1,18.7%
22,COc1ccc(OC)c(CN2CCN(S(=O)(=O)c3ccc(NC(C)=O)cc3)CC2)c1.O=C(O)C(=O)O,-3.01%
23,COC(=O)c1cc(OC)c(OC)cc1NC(=O)c1ccc(C)o1,-6.1%

row,Structure (SMILES),"hERG current change (%, negative = inhibition) at 10uM"
1,COCCNS(=O)(=O)c1ccc(OCC(=O)N2CCc3ccccc3C2)c(Cl)c1,-43.5%
2,CC1N(C(=O)N2CCOCC2)CCN1S(=O)(=O)c1cccc(C(F)(F)F)c1 (centres unmarked),12.1%
3,CC1=C(C(=O)c2ccccc2)C(c2cn(-c3ccccc3)nc2-c2ccc(Cl)cc2)NC(=S)N1 (centres unmarked),1.35%
4,O=C(NCc1ccccc1OC(F)(F)F)C1CCC(=O)N(Cc2ccccn2)C1 (centres unmarked),3.64%
5,CC1(c2ccc3noc(-c4ccc(F)cc4)c3c2)OCCO1,-31.1%
6,O=C(Nc1cc2c(cc1Cl)OCCCO2)c1ccccc1,-0.672%
7,Cn1c(=O)oc2cc(S(=O)(=O)N3CCCC(C(=O)NCc4cccs4)C3)ccc21 (centres unmarked),-12.6%
8,Cc1cccc2c(C(=O)N3CCCCC3)cc(-c3ccccc3)nc12,-4.27%
9,CC(Oc1ccc(Br)cc1)C(=O)Nc1nnc(C2CC2)s1 (centres unmarked),-29.4%
10,COc1cccc(S(=O)(=O)NCc2ccc(C(=O)Nc3cccc(Cl)c3)cc2)c1,9.07%
11,O=C(COC(=O)c1ccc(N2CCCC2=O)cc1)c1ccc(OC(F)F)cc1,-12.2%
12,CC(=O)N1N=C(c2ccc(C)o2)CC1c1ccc(F)cc1 (centres unmarked),0.533%
13,O=C1c2cccc3cccc(c23)C(=O)N1Nc1ccccc1,46.2%
14,CCCCOC(=O)CCN1C(=O)/C(=C2\SC(=S)N(CCC(=O)OCCCC)C2=O)SC1=S,9.11%
15,Cc1ccc(N2C(=O)NC(=O)/C(=C/c3ccc(-c4ccc(C(=O)O)c(Cl)c4)o3)C2=O)cc1,6.8%
16,Cc1cccc(C(=O)NC2CC3CCCC(C2)N3C(=O)NC2CCCCC2)c1 (centres unmarked),7.83%
17,Cc1ccc(NC(=O)COC(=O)C2CC(=O)N(Cc3ccccc3)C2)cc1S(=O)(=O)N(C)C (centres unmarked),7.45%
18,COC(=O)c1c(C)oc(C)c(C(=O)OC)c1=O,5.25%
19,Cc1cccc(NC(=O)CCSc2ccccn2)c1,0.39%
20,COc1ccccc1CNC(=O)COC(=O)CCC(=O)c1cccs1,1.23%
21,COc1cccc(C2NC(c3cccc(OC)c3O)C(C)C(=O)C2C)c1O (centres unmarked),-8.17%
22,Cc1cccnc1NC(=O)CNC(=O)C12CC3CC(CC(Cl)(C3)C1)C2,13%
23,Nc1ccc(-c2cnc(-c3ccc(N)cc3)nc2)cc1,7.73%

row,Structure (SMILES),"hERG current change (%, negative = inhibition) at 10uM"
1,Cc1ccc(S(=O)(=O)N2CCC(=O)N(CCOC(=O)Nc3cccc(Cl)c3)CC2)cc1,-65.7%
2,Cc1ccccc1C(=O)NNc1ccc([N+](=O)[O-])cc1,-17.3%
3,Cc1cc(C)n(C(=O)CSc2nc3ccccc3o2)n1,19.3%
4,CCOc1cc(/C=C2\SC(=NC)N(C)C2=O)cc(Cl)c1OC(C)=O,9.76%
5,CCCS(=O)(=O)c1nc(S(=O)(=O)c2ccc(C)cc2)c(NCCCN2CCOCC2)s1,-34.7%
6,O=C(Nc1cccc2ncccc12)c1ccc(F)cc1,-6.11%
7,C=CCn1c(N)c(C(=O)NCc2cccnc2)sc1=S,-35.1%
8,CCCN(C(=O)CCNC(=O)c1ccc(Cl)cc1)c1c(N)n(Cc2ccccc2)c(=O)[nH]c1=O,-2.34%
9,CC1Cc2ccccc2N1C(=O)CCNS(=O)(=O)c1ccc2c(c1)CCC(=O)N2 (centres unmarked),-32.5%
10,Cc1ccc(C(=O)Nc2nc3nc(-c4ccccc4)cc(=O)n3[nH]2)cc1,10.5%
11,CC(=O)c1ccc(OCC(O)CN(C)Cc2cccs2)cc1 (centres unmarked),-13.9%
12,NC(CSS(=O)(=O)O)=NCCC12CC3CC(CC(O)(C3)C1)C2,13.1%
13,O=S(=O)(Cc1ccccc1)N1CCN(Cc2ccccc2)CC1,-0.362%
14,CN(C)CCCNC(=S)N(CCCO)Cc1cc2cc3c(cc2[nH]c1=O)OCO3,17.9%
15,CC(C)(C)c1nc(Sc2ncccc2[N+](=O)[O-])n[nH]1,8.77%
16,Cc1nc2cc(Cl)ccc2c(=O)n1Cc1ccncc1,-3.2%
17,CCN=c1scc(-c2ccc3c(c2)NC(=O)CO3)n1N=C1CCCC1,-10%
18,Cc1ccc(CS(=O)Cc2ccc(C(=O)NCc3ccccc3)o2)cc1 (centres unmarked),11%
19,O=C(NCC1CCCO1)c1ccc2c(=O)n(-c3ccccc3)c(=S)[nH]c2c1 (centres unmarked),7.85%
20,COC(=O)CSc1nc(C)c2ccc(OC)cc2n1,2.22%
